{
  "source": "the supplement of paper PMC10338343",
  "note": "± gives the standard deviation. In all, about 5,500 sequences were measured (“pre-steady-state target cleavage rate”: median about 0.1, highest 2% from about 0.64 on). The entries are a selection whose mix differs from that of the whole data set.",
  "data": [
    {"tested_on": "MIWI (PIWIL1) piRISC loaded with piRNA #2 (30 nt)", "experiment": "pre-steady-state target cleavage rate (min^-1); MIWI and MILI are mouse PIWI proteins and EfPiwi is from a freshwater sponge; tags in brackets are library labels; higher = faster piRNA-guided slicing of the target", "conditions": "guide: piRNA #2 5'p-UUAGGUAACCCAGUAGAUCCAGAGGAAUUC; auxiliary factor: 500 nM mouse GTSF1", "how_it_was_run": "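The pre-steady-state cleavage rate was obtained by Cleave-'n-Seq with a burst-and-steady-state fit. A transcribed, DNA-blocked target RNA library (0.1 nM) was mixed with 1 nM active affinity-purified piRISC carrying one synthetic guide, with or without 500 nM GTSF1 partner protein, in HEPES–potassium acetate buffer at 33 °C for 0–8 or 0–960 min. Uncleaved targets were sequenced and normalised to depth and to weakly complementary targets, with three trials pooled and k3 capped at 0.0001 min^-1.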", "values": [
      {"sequence": "CUUAAGCUCUGGAUCUACUGGGUUACCCUAA", "pre-steady-state target cleavage rate": "0.0176 ± 0.0077"},
      {"sequence": "CUUAAGGACUGGAUCUACUGGGUUAGCUAA", "pre-steady-state target cleavage rate": "0.0719 ± 0.034"},
      {"sequence": "CUUAAGCUCUGGAUCUACUGGGUAACGUAA", "pre-steady-state target cleavage rate": "0.146 ± 0.023"},
      {"sequence": "CUUAAGCUCUGGUUCUACUGGGUUACGUAA", "pre-steady-state target cleavage rate": "0.333 ± 0.022"},
      {"sequence": "CUUUUGCUGUGGAUCUACUGGGUUACCUAA", "pre-steady-state target cleavage rate": "0.237 ± 0.041"},
      {"sequence": "CUUAAGGAGUGGACCUACUGGGUUACCUAA", "pre-steady-state target cleavage rate": "0.137 ± 0.018"},
      {"sequence": "CUUAAGGACUGGAUCGACUGGGUUACCUAA", "pre-steady-state target cleavage rate": "0.0762 ± 0.035"},
      {"sequence": "CUUAAGCUCUGUGAUCUACUGGGUUACCUAA", "pre-steady-state target cleavage rate": "0.116 ± 0.02"},
      {"sequence": "CAAUUGCUCUGGAUGUACUGGGUUACCUAA", "pre-steady-state target cleavage rate": "0.328 ± 0.047"},
      {"sequence": "CUAUUCCUCUGCAUCUACUGGCUUACCUAA", "pre-steady-state target cleavage rate": "0.133 ± 0.013"},
      {"sequence": "CUAUACCUCUGGAUCUUCUGGGUUACCUAA", "pre-steady-state target cleavage rate": "0.403 ± 0.057"},
      {"sequence": "CUUAACCUCUGGAUCUACAGGGUUUCCUAA", "pre-steady-state target cleavage rate": "0.0845 ± 0.014"},
      {"sequence": "GAAUUCCUCUGGAUCUACUGGGAAACCUAA", "pre-steady-state target cleavage rate": "0.204 ± 0.036"},
      {"sequence": "GAAUACGUCUGGAUCUACUGGGUUACCUAA", "pre-steady-state target cleavage rate": "0.301 ± 0.033"},
      {"sequence": "GAAUUCCUCUGGAUCUACUGGGGUACCUAA", "pre-steady-state target cleavage rate": "0.109 ± 0.032"},
      {"sequence": "GAAUUCCUCUGCUACUACUGGGUUACCUAA", "pre-steady-state target cleavage rate": "0.373 ± 0.038"},
      {"sequence": "CAAUUCCUCUGGAUCACUGGGUUACCUAA", "pre-steady-state target cleavage rate": "0.0316 ± 0.01"},
      {"sequence": "CAAUUCCUCUGCAUCUACUGGGAUACCUAA", "pre-steady-state target cleavage rate": "0.17 ± 0.023"},
      {"sequence": "CUAUUCCUCUGGAUGUACUGGGAUACCUAA", "pre-steady-state target cleavage rate": "0.178 ± 0.027"},
      {"sequence": "CUAUUCGUCUGGAUCUACUGCGUUACCUAA", "pre-steady-state target cleavage rate": "0.379 ± 0.047"},
      {"sequence": "CUUAAGGACUGGGUCUACUGGGUUACCUAA", "pre-steady-state target cleavage rate": "0.107 ± 0.039"},
      {"sequence": "GAAUACCUCUGGAUCUAGUGGGUUACCUAA", "pre-steady-state target cleavage rate": "0.0659 ± 0.012"},
      {"sequence": "CUUAAGGAGACCUUCUACUGUGUUACCUAA", "pre-steady-state target cleavage rate": "0.00649 ± 0.0034"},
      {"sequence": "CAAUACCUCUGGAUCUACUGGGUUACCAAA", "pre-steady-state target cleavage rate": "0.479 ± 0.072"},
      {"sequence": "GAAUUCCUCUGGAUCAACAGGGUUACCUAA", "pre-steady-state target cleavage rate": "0.114 ± 0.02"},
      {"sequence": "CUUAACCUCUGGAUUACUGGGUUACCUAA", "pre-steady-state target cleavage rate": "0.398 ± 0.03"},
      {"sequence": "CUUUUCCUGACGAUCUACUGGGUUACCUAA", "pre-steady-state target cleavage rate": "0.121 ± 0.023"},
      {"sequence": "CUUAAGGAGUGGAUCUAAUGGGUUACCUAA", "pre-steady-state target cleavage rate": "0.0117 ± 0.0041"},
      {"sequence": "CUUAAGGUCUGGAUCCACUGGGUUACCUAA", "pre-steady-state target cleavage rate": "0.111 ± 0.013"},
      {"sequence": "CUAUUCGUCUGGAUCUACUGGGUAACCUAA", "pre-steady-state target cleavage rate": "0.155 ± 0.033"},
      {"sequence": "CUUAAGGAGUGGCAUCUACUGGGUUACCUAA", "pre-steady-state target cleavage rate": "0.0176 ± 0.0063"},
      {"sequence": "CAAAUCCUCUGGAUCUACUCGGUUACCUAA", "pre-steady-state target cleavage rate": "0.102 ± 0.023"},
      {"sequence": "CUUAAGGAGUGGAUCUUCUGGGUUACCUAA", "pre-steady-state target cleavage rate": "0.0111 ± 0.0062"},
      {"sequence": "CAAUUCCUCUGGAUCUAGAGGGUUACCUAA", "pre-steady-state target cleavage rate": "0.0271 ± 0.0084"},
      {"sequence": "CUUCUCCUCUGGAUCUACUGGGUUACCUAA", "pre-steady-state target cleavage rate": "0.26 ± 0.035"},
      {"sequence": "GAAAUCCUCUGGAUCUUCUGGGUUACCUAA", "pre-steady-state target cleavage rate": "0.192 ± 0.038"},
      {"sequence": "CUAUUCCUCUGGAUCUACUGGGCUACCUAA", "pre-steady-state target cleavage rate": "0.163 ± 0.024"},
      {"sequence": "CAAUUCCUCUGGAUCUAGUGGCUUACCUAA", "pre-steady-state target cleavage rate": "0.00676 ± 0.0056"},
      {"sequence": "CUUUUCCUCUGGAUCUACAGGGUUACGUAA", "pre-steady-state target cleavage rate": "0.276 ± 0.026"},
      {"sequence": "CUUAAGCUCUGGAUGUACUGGGUUUCCUAA", "pre-steady-state target cleavage rate": "0.0607 ± 0.013"},
      {"sequence": "CUAUUCCUCACCAUCUACUGGGUUACCUAA", "pre-steady-state target cleavage rate": "0.384 ± 0.049"},
      {"sequence": "CAAUUCCUCUGGAUCUACUGGGUUCCCUAA", "pre-steady-state target cleavage rate": "0.301 ± 0.045"},
      {"sequence": "CUUAAGCUCUGGUUGUACUGGGUUACCUAA", "pre-steady-state target cleavage rate": "0.331 ± 0.026"},
      {"sequence": "CUUAAGGUCUGGAUGUACUGGGUAACCUAA", "pre-steady-state target cleavage rate": "0.0309 ± 0.025"},
      {"sequence": "CUUAUCCAGUGGAUCUACUGGGUUACCUAA", "pre-steady-state target cleavage rate": "0.548 ± 0.047"},
      {"sequence": "CUUAACAUCUGGAUCUACUGGGUUACCUAA", "pre-steady-state target cleavage rate": "0.276 ± 0.029"},
      {"sequence": "CUAUUCCUCUGCAUGUACUGGGUUACCUAA", "pre-steady-state target cleavage rate": "0.47 ± 0.034"},
      {"sequence": "CUUAUCCUCUGGAUCUACUGGGUUAUCCUAA", "pre-steady-state target cleavage rate": "0.413 ± 0.057"},
      {"sequence": "CUUAAGGAGAGGCAUCUACUGGGUUACCUAA", "pre-steady-state target cleavage rate": "0.00586 ± 0.0038"},
      {"sequence": "CAAUUCCUCUGGAUCUACUGAGUUACCUAA", "pre-steady-state target cleavage rate": "0.869 ± 0.075"},
      {"sequence": "CUAUUCCACUCGAUCUACUGGGUUACCUAA", "pre-steady-state target cleavage rate": "0.703 ± 0.037"},
      {"sequence": "CUUAAGGAGACCUAGAUGUGGGUUACGAUA", "pre-steady-state target cleavage rate": "< 0.0001"},
      {"sequence": "CUUAAGCUCUGGAUCUUCUGGGUUACGUAA", "pre-steady-state target cleavage rate": "0.251 ± 0.027"},
      {"sequence": "CUUAAGCUCUGGAUGUACUGCGUUACCUAA", "pre-steady-state target cleavage rate": "0.333 ± 0.049"},
      {"sequence": "CUUAAGGAGACCUAGAUCACGGUUACCUAA", "pre-steady-state target cleavage rate": "< 0.0001"},
      {"sequence": "CUUAACCUCUGGAUGAACUGGGUUACCUAA", "pre-steady-state target cleavage rate": "0.229 ± 0.018"},
      {"sequence": "CUUAAGCCUGGAUCUACUGGGUUACCUAA", "pre-steady-state target cleavage rate": "0.276 ± 0.021"},
      {"sequence": "CAAGUCCUCUGGAUCUACUGGGUUACCUAA", "pre-steady-state target cleavage rate": "0.245 ± 0.06"},
      {"sequence": "CUUAAGGACUGGAUCUACUGGGUUGACCUAA", "pre-steady-state target cleavage rate": "0.154 ± 0.061"},
      {"sequence": "CUUAAGCUGUGGAUCUACUGGCUUACCUAA", "pre-steady-state target cleavage rate": "0.0289 ± 0.021"},
      {"sequence": "CUUAAGGAGUGGAUCUACUGGGUUACCAA", "pre-steady-state target cleavage rate": "0.0149 ± 0.0068"},
      {"sequence": "CUUAACCUCUGGAUCUACGGGUUACCUAA", "pre-steady-state target cleavage rate": "0.0288 ± 0.006"},
      {"sequence": "CUUAACCUCUGGAUCUAGUGGGUUAGCUAA", "pre-steady-state target cleavage rate": "0.0377 ± 0.007"},
      {"sequence": "GAAUUCCUGUGGAUCUACUGGGUUACCUUA", "pre-steady-state target cleavage rate": "0.337 ± 0.038"},
      {"sequence": "CUUUUCCUCUGGAUCUACUGGCUUUCCUAA", "pre-steady-state target cleavage rate": "0.0511 ± 0.013"},
      {"sequence": "CUUUUCCUCUGGAUCUACUGGGUUUCGUAA", "pre-steady-state target cleavage rate": "0.236 ± 0.043"},
      {"sequence": "GAAUUCCUCUCGAUCUAGUGGGUUACCUAA", "pre-steady-state target cleavage rate": "0.299 ± 0.03"},
      {"sequence": "GAAUUCCAUCUGGAUCUACUGGGUUACCUAA", "pre-steady-state target cleavage rate": "0.466 ± 0.054"},
      {"sequence": "CUAUUCCUCUCGAUGUACUGGGUUACCUAA", "pre-steady-state target cleavage rate": "0.636 ± 0.045"},
      {"sequence": "CUUAAGCUCUGGAUCUACUGGCUUACGUAA", "pre-steady-state target cleavage rate": "0.0568 ± 0.014"},
      {"sequence": "CUUAAGCUGUGGUUCUACUGGGUUACCUAA", "pre-steady-state target cleavage rate": "0.15 ± 0.033"},
      {"sequence": "CUUAAGGUCUGGAUCAACUGGGUUACCAAA", "pre-steady-state target cleavage rate": "0.0964 ± 0.022"}
    ]}
  ]
}
